Source: the supplement of paper PMC7266297
Where a name gives a salt, the structure may show the parent alone. The list shows a part of the results. Many values rest on one well or one pass, so single values are uncertain.

These molecules were tested on KB-3-1 (assay: growth inhibition relative to DMSO control (SRB); cervical cancer cells: KB-3-1 is the parent and KB-V1 overexpresses MDR1; SRB is the sulforhodamine B stain; higher = more growth inhibition). Details: 1 µM; 72 h.
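Note: Read-out is SRB optical density at 490 nm, with the control being wells given 0.5% DMSO vehicle, and compound added one day after cells were plated.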

Compound | growth inhibition [%]
O=C1c2ccc(Nc3ccc(F)cc3F)cc2CCc2ccc(OC[C@H](O)CO)cc21 [Skepinone-L] | 5.75
CCC[C@H](NC(=O)[C@@H]1[C@H]2CCC[C@H]2CN1C(=O)[C@@H](NC(=O)[C@@H](NC(=O)c1cnccn1)C1CCCCC1)C(C)(C)C)C(=O)C(=O)NC1CC1 [Telaprevir (VX-950)] | 31.7
CN(C)CCC=C1c2ccccc2CCc2ccccc21 [Amitriptyline HCl] | < 0
C=CC(=O)Nc1cc2c(Nc3ccc(F)c(Cl)c3)ncnc2cc1OCCCN1CCOCC1 [Canertinib (CI-1033)] | 45
CC(C)n1nc(-c2ccc3oc(N)nc3c2)c2c(N)ncnc21 | 80.2
Nc1ccc2ncnc(NCCc3ccc(Oc4ccccc4)cc3)c2c1 | 30.2
COc1ccccc1N1CCN(CCN2C(=O)CC3(CCCC3)CC2=O)CC1 | < 0
C[C@H](NC(=O)CCc1nc2ccccc2c(=O)[nH]1)c1ccccc1 | 46.6
C=CCc1ccc(O)c(-c2ccc(O)c(CC=C)c2)c1 [Honokiol] | < 0
Clc1ccc2nsnc2c1NC1=NCCN1 [Tizanidine HCl] | 12.4
CNC(=O)c1ccc2cc([C@@]3(O)CCn4cncc43)ccc2c1 [TAK-700 (Orteronel)] | 29.4
CC(C)(C(=O)O)c1ccc(C(O)CCCN2CCC(C(O)(c3ccccc3)c3ccccc3)CC2)cc1 (stereo unspecified) [Fexofenadine HCl] | < 0
CC(C=CC(=O)NO)=CC(C)C(=O)c1ccc(N(C)C)cc1 (stereo unspecified) [Trichostatin A (TSA)] | 96.8
CO[C@H]1C[C@@H]2CC[C@@H](C)[C@@](O)(O2)C(=O)C(=O)N2CCCC[C@H]2C(=O)O[C@H]([C@H](C)C[C@@H]2CC[C@@H](OP(C)(C)=O)[C@H](OC)C2)CC(=O)[C@H](C)/C=C(\C)[C@@H](O)[C@@H](OC)C(=O)[C@H](C)C[C@H](C)/C=C/C=C/C=C/1C [Ridaforolimus (Deforolimus, MK-8669)] | 67.7
O=C(CCCCCCC(=O)Nc1ccccc1)NO [Vorinostat (SAHA, MK0683)] | 91.1
CO[C@H]1C[C@@H]2CC[C@@H](C)[C@@](O)(O2)C(=O)C(=O)N2CCCC[C@H]2C(=O)O[C@H]([C@H](C)C[C@@H]2CC[C@@H](OC(=O)C(C)(CO)CO)[C@H](OC)C2)CC(=O)[C@H](C)/C=C(\C)[C@@H](O)[C@@H](OC)C(=O)[C@H](C)C[C@H](C)/C=C/C=C/C=C/1C | 64.7
CC(C)NCC(O)COc1ccc(CCOCC2CC2)cc1 (stereo unspecified) [Betaxolol] | 27.9
COc1ccc(-c2nc(N3CCOCC3)c3sc(CN(C)c4ncc(C(=O)NO)cn4)cc3n2)cn1 | 100
C[C@]12CC[C@@H]3c4ccc(O)cc4CC[C@H]3[C@@H]1C[C@@H](O)[C@@H]2O [Estriol] | < 0
FC(F)c1nc2ccccc2n1-c1nc(N2CCOCC2)nc(N2CCOCC2)n1 | 80.1
COc1ccccc1N1CCN(CC(O)COc2cccc3ccccc23)CC1 (stereo unspecified) [Naftopidil] | < 0
FC(F)(F)c1ccc(/C=C/c2nc(COc3ccc(CCCCn4ccnn4)cc3)co2)cc1 [Mubritinib (TAK 165)] | 16
CS(=O)(=O)CCNCc1ccc(-c2ccc3ncnc(Nc4ccc(OCc5cccc(F)c5)c(Cl)c4)c3c2)o1 | 76.9
Cc1cc([C@@H](C)Nc2ccccc2C(=O)O)c2nc(N3CCOCC3)cc(=O)n2c1 | 40.5
CCCCN(Cc1ccc(C(=O)NO)cc1)C(=O)Nc1ccccc1 [Nexturastat A] | 34.8
Cc1cc(C(=O)NOCCO)c(Nc2ccc(I)cc2F)n(C)c1=O | < 0
